The source of these data is the supplement of paper PMC2702839.

The structures appear in SMILES notation. Structures can show the parent of a compound that is named as a salt. The list shows a part of the results.

The test system of this assay is Schistosoma mansoni schistosomula. Description: phenotypic hit in primary schistosomula screen (any phenotype vs DMSO control) (binary (1 = hit, 0 = no phenotype)); higher = active (phenotype induced). As to conditions: 1 µM; time (d): 7.
For the compound `O=C(O)c1cc(/N=N/c2ccc(S(=O)(=O)Nc3ccccn3)cc2)ccc1O` [sulfasalazine], the phenotypic hit was inactive: 0. Turning to `CC(N)CCCC(C)(C)O` (stereo not given) [heptaminol hydrochloride], the phenotypic hit is inactive: 0.

As for `Cc1cc(O)cc(C)c1Cl` [chloroxylenol], the phenotypic hit is inactive: 0. The same measure for `Oc1cccc(O)c1` [resorcinol]: inactive: 0; for `O=C(O)c1cc(=O)c2c(Cl)cc(Cl)cc2[nH]1` [5,7-Dichlorokynurenic acid]: inactive: 0. For `C=C1CCC(C2CC(=O)OC2=O)C(=O)CCC2C1CC2(C)C` (stereo not given) the value was inactive: 0. On to `NC(=O)CC[C@H](N)C(=O)O` [L-Glutamine], for which the phenotypic hit is inactive: 0.

In the case of `COc1ccccc1/C=C/C(=O)O` [coumarinic acid methyl ether], the phenotypic hit is inactive: 0. For `CC(C)OC(=O)C(C)(C)Oc1ccc(C(=O)c2ccc(Cl)cc2)cc1` [fenofibrate] the value was inactive: 0. For `NC(=O)c1cnccn1` [pyrazinamide] the value was inactive: 0; for `O=c1c(-c2ccccc2)coc2cc(O)cc(O)c12` [5,7-dihydroxyisoflavone], inactive: 0. For `Cc1nc2ccccn2c(=O)c1CCN1CCC(C(=O)c2ccc(F)cc2)CC1` [Pirenperone], the phenotypic hit was inactive: 0.

With `CCCn1c(=O)c2[nH]c(C3CCCC3)nc2n(CCC)c1=O` [8-Cyclopentyl-1,3-dipropylxanthine], the phenotypic hit is inactive: 0. For `C=C(C)[C@@H]1CC[C@]2(CO)CC[C@]3(C)[C@H](CC[C@@H]4[C@@]5(C)CC[C@H](O)C(C)(C)[C@@H]5CC[C@]43C)[C@@H]12` [betulin] the value was inactive: 0; for `C/C=C/c1ccc(OC)cc1` [anethole], inactive: 0.

Turning to `CCN1CCN(C(=O)NC(C(=O)NC2C(=O)N3C(C(=O)O)=C(CSc4nnnn4C)CSC23)c2ccc(O)cc2)C(=O)C1=O` (stereo not given) [cefoperazole sodium], the phenotypic hit was inactive: 0.

Regarding `O[C@H]1[C@H](O)[C@@H](O)[C@H](O)[C@@H](O)[C@H]1O` [inositol], the phenotypic hit was inactive: 0. The same measure for `COc1cc2c(cc1OC)[C@@H]1C(=O)c3c(O)cc4c(c3O[C@@H]1CO2)C=CC(C)(C)O4` [alpha-toxicarol]: inactive: 0; for `COc1ccc2c(c1)CC[C@@H]1[C@@H]2CC[C@]2(C)[C@@H](O)CC[C@@H]12` [estradiol methyl ether]: inactive: 0. The same measure for `CC(=O)O[C@H]1C(=O)[C@@]2(C)[C@H]([C@H](OC(=O)c3ccccc3)[C@]3(O)C[C@H](OC(=O)[C@H](O)[C@@H](NC(=O)c4ccccc4)c4ccccc4)C(C)=C1C3(C)C)[C@]1(OC(C)=O)CO[C@@H]1C[C@@H]2O` [Taxol]: active: 1. The same measure for `C/C=C(/C(=C/C)c1ccc(O)cc1)c1ccc(O)cc1` [dienestrol]: inactive: 0. As to `COC(=O)c1c(C)cc(OC(=O)c2c(C)cc(O)c(C=O)c2O)c(C)c1O` [atranorin], the phenotypic hit is inactive: 0.

As to `O=C(O)c1ccccc1OP(=O)(O)O` [fosfosal], the phenotypic hit is inactive: 0. In the case of `CC1=C(/C=C/C(C)=C/C=C/C(C)=C/CO)C(C)(C)CCC1` [retinol], the phenotypic hit was inactive: 0. On to `CC(=O)OC1CC[C@@]2(C)C(CC[C@]3(C)C2CCC2C4CC(C)(C)CCC4(C(=O)O)CC[C@]23C)C1(C)C` (stereo not given in full) [oleananoic acid acetate], for which the phenotypic hit was inactive: 0.

For the compound `Nc1cc(N2CCCCC2)nc(N)[n+]1[O-]` [Minoxidil], the phenotypic hit was inactive: 0. For `O=C(/C=C/c1ccccc1)c1ccc(O[C@@H]2O[C@H](CO)[C@@H](O)[C@H](O)[C@H]2O)cc1O` [2',4'-dihydroxychalcone 4'-glucoside], the phenotypic hit was inactive: 0. For `C=C[C@H]1CN2CC[C@H]1C[C@H]2[C@H](O)c1ccnc2ccc(OC)cc12` [quinine sulfate] the value was inactive: 0; for `CC1(C)S[C@@H]2[C@H](NC(=O)[C@H](N)c3ccccc3)C(=O)N2[C@H]1C(=O)O` [ampicillin sodium], inactive: 0; for `CC1/C(=N/O)C[C@@H]2C[C@H]1C2(C)C` (stereo not given in full) [3-pinanone oxime], inactive: 0. The same measure for `CC(=O)NCCCCCC(=O)O` [acexamic acid]: inactive: 0. For `O=c1n(CCCN2CCN(c3cccc(Cl)c3)CC2)nc2ccccn12` [Trazodone hydrochloride] the value was inactive: 0; for `CC1(C)OC(=O)C=CC2(C)C1CC(O)C1(C)C2CCC2(C)C(c3ccoc3)OC(=O)C3OC321` (stereo not given) [obacunol], inactive: 0. For `COc1ccc([C@@H](C)C(=O)c2ccc(O)cc2O)cc1` [angolensin (r)], the phenotypic hit was inactive: 0. In the case of `O=c1oc2c(O)c(O)cc3c(=O)oc4c(O)c(O)cc1c4c23` [ellagic acid], the phenotypic hit is inactive: 0. For `NC(=O)NCCC[C@H](N)C(=O)O` [citrulline] the value was inactive: 0. The same measure for `COc1ccc(-c2coc3cc(OC(C)=O)cc(OC(C)=O)c3c2=O)cc1` [biochanin a diacetate]: inactive: 0. The same measure for `CC(=O)CC(c1ccccc1)c1c(O)c2ccccc2oc1=O` (stereo not given) [warfarin]: inactive: 0; for `O=C1NS(=O)(=O)c2ccccc21` [saccharin]: inactive: 0.

As to `NS(=O)(=O)c1cc2c(cc1Cl)NC(C1CC3C=CC1C3)NS2(=O)=O` (stereo not given) [Cyclothiazide], the phenotypic hit was inactive: 0. Regarding `CCN(CC)CC(=O)Nc1c(C)cccc1C` [Lidocaine hydrochloride], the phenotypic hit was inactive: 0. The same measure for `COC(=O)C[C@H]1C(C)(C)[C@H](O)[C@@H]2CC3=C4CC(O)O[C@@H](c5ccoc5)[C@@]4(C)CCC3[C@]1(C)C2=O` (stereo partly drawn) [3,16-dideoxymexicanolide-3alpha-diol]: inactive: 0; for `COC(=O)C1=CO[C@@H](C)[C@H]2CN3CCc4c([nH]c5ccccc45)[C@@H]3C[C@H]12` [ajmalicine]: inactive: 0. For `c1ccc2c(CC3=NCCN3)cccc2c1` [naphazoline hydrochloride] the value was inactive: 0; for `CC(=O)OCC(=O)[C@@]12OC(C)(C)O[C@@H]1C[C@H]1[C@@H]3C[C@H](F)C4=CC(=O)C=C[C@]4(C)[C@@]3(F)[C@@H](O)C[C@@]12C` [fluocinonide], inactive: 0. For `C=CC1=C(C(=O)O)N2C(=O)[C@@H](NC(=O)/C(=N\O)c3csc(N)n3)[C@H]2SC1` [cefdinir] the value was inactive: 0.

As for `OCc1ccccc1O[C@@H]1O[C@H](CO)[C@@H](O)[C@H](O)[C@H]1O` [salicin], the phenotypic hit is inactive: 0. For `C=C1CC[C@@H]2[C@](C)(CO)[C@H](O)CC[C@@]2(C)[C@@H]1C/C=C1/C(=O)OC[C@H]1O` [andrographolide] the value was inactive: 0; for `CC(=O)NS(=O)(=O)c1ccc(N)cc1` [sulfacetamide], inactive: 0. `CC(=O)O[C@H]1C[C@@]2(C)[C@H](c3ccoc3)OC(=O)[C@H]3O[C@]32[C@@]2(C)C1[C@]1(C)C(C[C@H]2OC(C)=O)C(C)(C)[C@H](OC(C)=O)C[C@@H]1OC(C)=O` (stereo partly drawn) [11alpha-acetoxykhivorin]: the phenotypic hit is inactive: 0.

Consider `O=C(O[C@@H]1Cc2c(O)cc(O)cc2O[C@@H]1c1cc(O)c(=O)c2c(O)c(O)cc([C@H]3Oc4cc(O)cc(O)c4C[C@H]3OC(=O)c3cc(O)c(O)c(O)c3)c2c1)c1cc(O)c(O)c(O)c1` [theaflavin digallate], for which the phenotypic hit is inactive: 0. For `CS(=O)(=O)OCCCCOS(C)(=O)=O` [busulfan] the value was inactive: 0; for `Cc1c(NC(=O)c2cccnc2)c(=O)n(-c2ccccc2)n1C` [nifenazone], inactive: 0; for `O=C(/C=C/c1ccc(O)cc1)c1ccc(O)cc1O` [isoliquiritigenin], inactive: 0. For `N[C@@H](Cc1c[nH]c2ccccc12)C(=O)O` [tryptophan] the value was inactive: 0; for `NS(=O)(=O)c1cc2c(cc1C(F)(F)F)NCNS2(=O)=O` [hydroflumethiazide], inactive: 0; for `COc1cc(OC)c2c(c1Cl)O[C@@]1(C(=O)CC(=O)C[C@H]1C)C2=O` [griseofulvic acid], inactive: 0. For `CC(=O)N[C@H]1[C@H]([C@H](O)[C@H](O)CO)OC(O)(C(=O)O)C[C@@H]1O` (mixture of isomers) [n-acetylneuramic acid] the value was inactive: 0; for `CN1C(=O)CC[C@H]1c1cccnc1` [cotinine], inactive: 0.

As to `CC[C@@H]1C(=O)OC[C@@H]1Cc1cncn1C` [(+)-Pilocarpine hydrochloride], the phenotypic hit is inactive: 0.

Take `Cc1cc(O)c(C=O)c(O)c1C(=O)O` [haematommic acid]: the phenotypic hit is inactive: 0. For `C[C@H](CCC(=O)O)[C@H]1CC[C@H]2[C@@H]3[C@@H](O)C[C@@H]4C[C@H](O)CC[C@]4(C)[C@H]3CC[C@]12C` [ursodiol] the value was inactive: 0. The same measure for `Nc1c2ccccc2nc2ccccc12` [aminacrine]: inactive: 0; for `CN1CCC(=C2c3ccccc3Sc3ccccc32)CC1` [pimethixene maleate]: inactive: 0. For `COC1=CC(=O)C(C(=O)c2ccccc2)=CC1=O` [2-benzoyl-5-methoxybenzoquinone] the value was inactive: 0. With `N[C@@H](Cc1cc(I)c(Oc2ccc(O)c(I)c2)c(I)c1)C(=O)O` [liothyronine sodium], the phenotypic hit is inactive: 0. For `CC(C)[C@@H](C)/C=C/[C@@H](C)[C@H]1CC[C@H]2C3=CCC4CC(=O)CC[C@]4(C)[C@H]3CC[C@]12C` (stereo not given in full) [ergosta-7,22-dien-3-one] the value was inactive: 0. For `COc1ccc(-c2oc3cc(O[C@@H]4O[C@H](CO)[C@@H](O)[C@H](O)[C@H]4O)c(OC)c(O)c3c(=O)c2OC)cc1O` [centaurein] the value was inactive: 0; for `COc1ccc(C(=O)c2ccccc2)c(O)c1O` [3-desmethyl-5-deshydroxyscleroin], inactive: 0. The same measure for `C(=C\c1ccccc1)/CN1CCN(C(c2ccccc2)c2ccccc2)CC1` [cinnarazine]: inactive: 0.
